# Laboratory results as given in the supplement of paper PMC3334620.
# The full ranking holds about 33,000 sequences; the median of “E-score (-0.5 to 0.5)” is about -0.011, and the highest 2% start at about 0.28. The list shows a part of the results.
# Target: T1, Gcr1 (UniProt P07261)
# T1 sequence: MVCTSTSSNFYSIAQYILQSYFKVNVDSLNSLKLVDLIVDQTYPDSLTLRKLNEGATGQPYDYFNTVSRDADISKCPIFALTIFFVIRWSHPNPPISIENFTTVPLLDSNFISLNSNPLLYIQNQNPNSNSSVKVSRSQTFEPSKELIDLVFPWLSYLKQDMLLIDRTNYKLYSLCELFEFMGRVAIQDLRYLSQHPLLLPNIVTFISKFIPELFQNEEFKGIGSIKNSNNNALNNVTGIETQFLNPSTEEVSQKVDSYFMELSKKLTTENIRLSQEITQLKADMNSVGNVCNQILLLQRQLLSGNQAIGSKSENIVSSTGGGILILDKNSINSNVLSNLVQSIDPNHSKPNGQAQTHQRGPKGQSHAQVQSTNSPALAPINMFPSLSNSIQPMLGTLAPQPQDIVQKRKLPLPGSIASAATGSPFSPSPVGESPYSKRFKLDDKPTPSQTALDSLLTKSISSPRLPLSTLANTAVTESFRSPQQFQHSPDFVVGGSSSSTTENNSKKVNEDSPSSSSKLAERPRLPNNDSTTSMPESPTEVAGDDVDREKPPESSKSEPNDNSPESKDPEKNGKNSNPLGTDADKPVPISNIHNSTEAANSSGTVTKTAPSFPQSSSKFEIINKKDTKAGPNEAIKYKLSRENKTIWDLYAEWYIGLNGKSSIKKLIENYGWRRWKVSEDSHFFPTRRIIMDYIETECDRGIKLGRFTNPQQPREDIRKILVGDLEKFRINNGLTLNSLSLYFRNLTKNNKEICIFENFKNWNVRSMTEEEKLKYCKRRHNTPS
# Experiment: PBM E-score (8-mer binding enrichment) (E-score (-0.5 to 0.5)); higher = stronger / more preferred TF binding; most listed sequences are background and not binding sites
# Settings: protein concentration: 100 nM; construct: GST-full length
# How it was run: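 Bound GST-tagged yeast transcription factors, applied at about 100-200 nM to double-stranded universal all-10-mer Agilent arrays, were detected with fluorescent anti-GST. Scans were normalised with masliner. A modified Wilcoxon-Mann-Whitney statistic, the E-score, was assigned to each ungapped eight-base word pooled with its reverse complement by the Universal PBM Analysis Suite.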
row,Sequence,PBM E-score
1,ACACGGTC,-0.274
2,ATGCACTG,-0.153
3,AATATTTA,0.162
4,GCCAAGGC,-0.253
5,CAGTGTCG,-0.122
6,CTAAAAAG,0.183
7,TCCACACA,-0.0477
8,AGATCGAC,-0.0758
9,AAATTCGA,-0.042
10,GGCATTGA,0.0123
11,CGTATAGC,-0.0455
12,AGAACAAT,0.146
13,CACTACTC,-0.0981
14,ACCAAAGA,0.139
15,TAGCAATA,0.0436
16,ATTGGGAG,-0.141
17,AAAGTGTG,-0.0476
18,AAAACTCC,-0.136
19,CCAACACC,0.0562
20,GTCGTAAA,0.0176
21,CCCTATTC,-0.0171
22,AGGAGCCG,0.269
23,CCCGCTGA,-0.133
24,ATTCCCGC,0.221
25,ACATAGCC,-0.146

row,Sequence,PBM E-score
1,AGAGAACA,-0.148
2,GGTGGTCA,-0.132
3,ACTCCACC,0.0234
4,ATCTTTTC,0.0492
5,TGTGGAAA,0.174
6,AACTATTC,-0.0187
7,AGGCAGAG,-0.193
8,ACGGGAGT,-0.0762
9,CCCTGCAA,-0.187
10,CTTAACAC,0.00017
11,AAGCCCTA,0.0541
12,CAAGCGTA,-0.182
13,CACCTCGC,-0.161
14,AGTTATTG,-0.0268
15,CGGCTATC,-0.102
16,CTGGCCAA,-0.00374
17,AAGGGGCC,0.206
18,ACGGTTGC,-0.264
19,GTTATCGA,0.0381
20,ACTTAAAA,0.189
21,ATGCGCGC,0.0774
22,GTATCAAA,0.0208
23,CCTTGGCA,0.00218
24,CACATTCC,0.00327
25,CCCATAGG,-0.0627

row,Sequence,PBM E-score
1,ATTCCCGG,0.126
2,ACAGCGAC,0.0284
3,AGGTAGAG,-0.184
4,CGGCAGTA,-0.0464
5,GGCCCATA,-0.0625
6,GGACGCTA,0.363
7,AAGCTTGC,-0.0383
8,ACCGCGAC,0.00022
9,CCGTAGAA,0.104
10,GCTCAAGC,-0.249
11,TTAAGAAA,0.0367
12,AAAAATAA,0.0783
13,CCCGGTCC,-0.0935
14,CACGTGGG,-0.0349
15,AGAAAATA,0.0226
16,GAATTCCA,0.369
17,AAATCTTC,0.0977
18,GATAGAAA,0.0681
19,TCCCAGGA,0.0364
20,ACCTGCCT,-0.218
21,ATACGGAA,0.221
22,CTAGATAG,0.131
23,AGTCACGC,-0.118
24,CCGATCGA,-0.0301
25,TGGCCCCA,0.0932

row,Sequence,PBM E-score
1,AGAGAACC,0.0209
2,ACTTGGGC,-0.117
3,CCTAAGAG,0.0504
4,TCGAAACA,0.0146
5,CTTCCAGC,0.123
6,TCCGTCGA,-0.0994
7,GTCATCGA,-0.118
8,CTCCTCAG,-0.111
9,GCGGGCAC,0.277
10,CAGGGGCC,0.0162
11,ACTCGAGA,-0.0317
12,GCCCTTAC,-0.0542
13,ACCACCAG,0.166
14,CTATAAGA,0.115
15,AGGTTACG,-0.144
16,CTTGTAAC,0.142
17,CTCGAGTA,0.164
18,AGCTTTTC,-0.206
19,AGAGGTCG,0.0297
20,CGGAGGTA,-0.0814
21,ATGCTTTA,-0.0458
22,TCCTGCGA,-0.121
23,GGCGCGCA,0.171
24,CTGACATC,0.147
25,ATTTCAGC,-0.0316

row,Sequence,PBM E-score
1,TAATTCGA,-0.0807
2,ATACTTAA,0.161
3,AATGCAAC,-0.0227
4,CTTTTGGC,-0.187
5,TACGAGGA,0.0036
6,AATACTTA,0.0503
7,ACATTAGT,-0.0355
8,GTAAGCAA,-0.13
9,CCGCAGTA,-0.198
10,ACCTGGGA,0.0304
11,CAGTTTAA,0.15
12,GAGGTACC,0.0768
13,AAGTGGTC,0.0307
14,CTGCCATC,0.087
15,AAATTATG,0.0598
16,CATGTCCC,-0.135
17,CGCATCTA,0.204
18,CGACACCC,-0.0352
19,AGAAGTAA,-0.0438
20,ATTCTGTA,0.0504
21,ACCCGCTA,0.221
22,ATTGACGG,-0.0123
23,CGGTAGAA,-0.165
24,CGGATTGA,-0.116
25,AACGTGAC,-0.138

row,Sequence,PBM E-score
1,GATCAGCC,-0.0369
2,TGCAATAA,0.176
3,CCGTTAAG,-0.0864
4,AATCAGTG,-0.0232
5,AGCAAAAC,-0.0711
6,AATGATGC,0.127
7,AGCGGATC,-0.0271
8,AGTTTGGG,0.0924
9,GTCCAGAC,-0.129
10,AGCTATCA,0.0321
11,AGCAACAC,-0.155
12,GGTCCACC,-0.203
13,CAGGGTAG,-0.298
14,AGTCTACG,-0.0187
15,CCGGGCTA,-0.0612
16,CTAGTCAC,-0.0102
17,GTAAGCAC,-0.0366
18,TACAAGAA,0.379
19,GTAGGGTA,0.0186
20,AACGGTAA,-0.104
21,ACTCCCGA,-0.132
22,GAAAGAAA,-0.00222
23,CAGTGACC,-0.0348
24,CCTGCAAA,-0.0849
25,GCTACTGA,0.134

row,Sequence,PBM E-score
1,AGATTTAA,-0.051
2,AAGGTAGA,-0.0145
3,AACTACCC,-0.0549
4,ATACGTGC,-0.162
5,CTGCCCAA,-0.0694
6,CACAGGTG,0.0843
7,GTTGACAA,0.0264
8,CCGCACAA,-0.228
9,ATGCACCG,0.0335
10,AAAGAATT,0.0694
11,CTCGAATA,-0.0395
12,GAGTTGCA,-0.0956
13,AATCGTAG,-0.0634
14,CGTCCCAC,0.0816
15,CTAAGGCA,-0.136
16,ACACGCGC,-0.0262
17,GACACGAC,-0.00308
18,CCTAGCAA,0.0796
19,TGGTTCAA,-0.11
20,CCTCGCTC,-0.0356
21,ACGTGACT,-0.226
22,CAATAGCC,-0.237
